Results taken from the supplement of paper PMC7826260.
The other results are listed elsewhere or left out. Each Rep nickase domain was tested in vitro on the same pool of single strands for 1 h at 37 °C with 3 µM enzyme; only the middle of the 90-letter strands is printed. Numbers give uncut DNA relative to the enzyme-free pool, as log2; more negative means more cut, near 0 not cut, and no call is made. The scaling is to total reads; uncut strands gain when others are lost, and binding without cutting may add a little.

Experiments:
Assay in all cases: uncleaved DNA left, log2 of reads against the no-enzyme library (log2 ratio); higher = less cleavage (more negative = more Rep cleavage of the k-mer); sequences stand for … in CTCGTCCG…ACCGGAGA
[1] = tested on: T1, Rep nickase domain of Muscovy duck circovirus
T1 sequence (residues 1-111, tag not shown): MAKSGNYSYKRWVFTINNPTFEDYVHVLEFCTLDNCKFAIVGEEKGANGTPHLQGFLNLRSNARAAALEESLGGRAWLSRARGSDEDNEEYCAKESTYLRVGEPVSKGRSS
Experimental: (§1)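 A pool of 90-nt single-stranded DNAs with seven random bases just before the constant AC of the nick site (name = the seven bases) was cut by 3 µM recombinant His6-SUMO-tagged Rep nickase domain (300 nM DNA, 50 mM HEPES pH 8.0, 50 mM NaCl, 1 mM MnCl2, 1 h, 37 °C, three replicates). Uncut DNA was amplified and sequenced.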

[2] = tested on: T2, Rep nickase domain of banana bunchy top virus
T2 sequence (residues 1-94, tag not shown): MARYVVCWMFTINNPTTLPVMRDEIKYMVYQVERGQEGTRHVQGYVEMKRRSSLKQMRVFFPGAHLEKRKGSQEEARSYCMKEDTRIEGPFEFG
Experimental: as §1

[3] = tested on: T3, Rep nickase domain of cabbage leaf curl virus
T3 sequence (residues 1-116, tag not shown): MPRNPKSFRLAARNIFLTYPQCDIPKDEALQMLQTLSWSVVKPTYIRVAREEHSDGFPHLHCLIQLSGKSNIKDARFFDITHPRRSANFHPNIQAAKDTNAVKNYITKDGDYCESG
Experimental: as §1

[4] = tested on: T4, Rep nickase domain of chickpea chlorotic dwarf virus
T4 sequence (residues 1-124, tag not shown): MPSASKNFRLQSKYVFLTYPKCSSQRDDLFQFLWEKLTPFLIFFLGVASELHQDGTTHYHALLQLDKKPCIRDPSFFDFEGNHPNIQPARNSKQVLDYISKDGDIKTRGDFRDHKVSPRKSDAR
Experimental: as §1

[5] = tested on: T5, Rep nickase domain of faba bean necrotic yellows virus
T5 sequence (residues 1-98, tag not shown): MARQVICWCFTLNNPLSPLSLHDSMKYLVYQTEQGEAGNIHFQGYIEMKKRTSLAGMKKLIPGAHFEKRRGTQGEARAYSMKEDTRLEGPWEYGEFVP
Experimental: as §1

[6] = tested on: T6, Rep nickase domain of maize striate mosaic virus
T6 sequence (residues 1-117, tag not shown): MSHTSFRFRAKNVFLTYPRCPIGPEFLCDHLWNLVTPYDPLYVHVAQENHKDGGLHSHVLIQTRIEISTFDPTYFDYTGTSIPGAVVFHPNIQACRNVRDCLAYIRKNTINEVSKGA
Experimental: as §1

[7] = tested on: T7, Rep nickase domain of porcine circovirus 2
T7 sequence (residues 2-116, tag not shown): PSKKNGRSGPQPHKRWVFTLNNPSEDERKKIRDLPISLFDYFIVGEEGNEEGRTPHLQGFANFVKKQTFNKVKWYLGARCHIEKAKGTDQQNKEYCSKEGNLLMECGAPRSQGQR
Experimental: as §1

[8] = tested on: T8, Rep nickase domain of tomato golden mosaic virus
T8 sequence (residues 1-124, tag not shown): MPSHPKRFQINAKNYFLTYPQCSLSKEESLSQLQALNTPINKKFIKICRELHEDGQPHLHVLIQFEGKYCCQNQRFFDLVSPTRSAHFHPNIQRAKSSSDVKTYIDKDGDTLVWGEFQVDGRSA
Experimental: as §1

[9] = tested on: T9, Rep nickase domain of tomato yellow leaf curl virus
T9 sequence (residues 1-136, tag not shown): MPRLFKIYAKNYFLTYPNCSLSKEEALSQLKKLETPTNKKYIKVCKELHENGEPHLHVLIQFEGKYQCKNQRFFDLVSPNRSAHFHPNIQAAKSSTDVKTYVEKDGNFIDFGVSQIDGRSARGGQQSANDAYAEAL
Experimental: as §1

[10] = tested on: T10, Rep nickase domain of wheat dwarf virus
T10 sequence (residues 1-137, tag not shown): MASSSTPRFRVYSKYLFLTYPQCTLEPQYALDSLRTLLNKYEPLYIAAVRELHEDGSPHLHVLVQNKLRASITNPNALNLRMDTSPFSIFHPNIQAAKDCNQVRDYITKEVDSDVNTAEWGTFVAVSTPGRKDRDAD
Experimental: as §1

Row | Sequence | uncleaved DNA left (log2) [1] | uncleaved DNA left (log2) [2] | uncleaved DNA left (log2) [3] | uncleaved DNA left (log2) [4] | uncleaved DNA left (log2) [5] | uncleaved DNA left (log2) [6] | uncleaved DNA left (log2) [7] | uncleaved DNA left (log2) [8] | uncleaved DNA left (log2) [9] | uncleaved DNA left (log2) [10]
1 | AAACTCA | -0.0161 | 0.0891 | -0.159 | -2.2 | 0.0347 | -0.523 | -0.137 | 0.042 | 0.106 | 0.0239
2 | GTGTCGG | 0.0316 | -0.0104 | 0.398 | 1.2 | 0.0339 | 1.65 | 0.0471 | 0.131 | -0.0106 | 0.0279
3 | GTCCCAG | 0.0624 | 0.0734 | 0.35 | 0.769 | -0.0391 | 1.3 | 0.129 | 0.19 | 0.0849 | 0.147
4 | TCTGCTC | -0.0167 | -0.162 | -0.0821 | -0.655 | -0.0318 | -0.701 | -0.127 | -0.111 | -0.00204 | -0.175
5 | CTCCACC | -0.0745 | -0.0538 | -0.0426 | -0.526 | -0.073 | -0.51 | -0.207 | -0.0935 | -0.052 | -0.126
6 | TGTAAGC | -0.147 | -0.0284 | 0.0107 | -0.0513 | -0.0741 | -0.527 | -0.0103 | -0.118 | -0.0758 | -0.0649
7 | ACCCACC | -0.0631 | 0.0175 | -0.0616 | -0.462 | 0.054 | -0.467 | -0.119 | 0.0528 | -0.159 | 0.0815
8 | GTATATC | 0.117 | 0.125 | 0.375 | 0.956 | 0.127 | 1.68 | 0.085 | 0.0885 | 0.0977 | 0.212
9 | GCTACAT | 0.072 | 0.107 | 0.701 | 1.49 | -0.0812 | 1.87 | 0.156 | 0.0508 | 0.0913 | 0.139
10 | AGTGACA | -0.0215 | 0.0662 | 0.0165 | 0.644 | -0.108 | 1.35 | -0.000666 | 0.0153 | 0.0152 | 0.00693
11 | TGAATGG | 0.141 | 0.192 | 0.28 | 0.717 | 0.13 | 0.287 | 0.258 | 0.123 | 0.098 | 0.156
12 | TAACTAC | 0.0222 | -0.0184 | -0.815 | -3.03 | 0.0134 | -0.499 | -0.0243 | -0.0546 | 0.0616 | -0.204
13 | CCACCAA | -0.113 | 0.0498 | -0.0947 | -0.726 | -0.0731 | -0.687 | -0.276 | -0.0608 | -0.0411 | -0.0572
14 | GAACTGA | 0.098 | 0.191 | 0.211 | 0.766 | 0.135 | 1.57 | 0.151 | 0.121 | 0.037 | 0.124
15 | GTCACTC | -0.00893 | 0.104 | 0.296 | 0.879 | 0.00669 | 1.46 | 0.136 | -0.0287 | 0.107 | 0.144
